According to PubChem BioAssay AID485294 (National Center for Advancing Translational Sciences (NCATS), 2010):
About 150 (0.041%) of roughly 370,000 compounds were called active. The shares of active, inactive and inconclusive entries below differ from those in the screen. Calls follow the shape of the dose curve; as a rule, active = well fitted inhibition curve with a large enough effect; inconclusive = small, poorly fitted or top-dose-only effect; inactive = flat fitted curve, though single readings scatter. No potency is given beside an inconclusive call; the fits are too rough. Peptide text beside a SMILES is read from it. * marks the point of attachment. Cbz = O=C(OCc1ccccc1)*

target: Beta-lactamase (Escherichia coli (strain K12)) (UniProt P00811); test: qHTS Inhibitors of AmpC Beta-Lactamase (assay with detergent); conditions: AmpC hydrolysis of nitrocefin, absorbance 480 nm, 0.01% Triton; activity change, negative = inhibition: at 114 µM (top of the series); also: nearly all actives have a fitted effect of over 25% in size;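 as to activity change, negative = inhibition: 0% = no-compound wells and -100% = no-enzyme wells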
Summary of the method: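 20 mM phosphate pH 7.0 + 0.01% (detergent screen) or 0.0001% Triton X-100; 5.3 nM AmpC reagent; cpd preinc 15 min RT; nitrocefin (800 uM stock) to start; A480 q20 s × 4 min; Activity was normalised to no-enzyme and no-compound control wells.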
Potency is read from the fitted curve at half-maximal effect; tags tell the direction and shape of the fitted curve.

Sequence of UniProt P00811 (P00811 whole entry, looked up): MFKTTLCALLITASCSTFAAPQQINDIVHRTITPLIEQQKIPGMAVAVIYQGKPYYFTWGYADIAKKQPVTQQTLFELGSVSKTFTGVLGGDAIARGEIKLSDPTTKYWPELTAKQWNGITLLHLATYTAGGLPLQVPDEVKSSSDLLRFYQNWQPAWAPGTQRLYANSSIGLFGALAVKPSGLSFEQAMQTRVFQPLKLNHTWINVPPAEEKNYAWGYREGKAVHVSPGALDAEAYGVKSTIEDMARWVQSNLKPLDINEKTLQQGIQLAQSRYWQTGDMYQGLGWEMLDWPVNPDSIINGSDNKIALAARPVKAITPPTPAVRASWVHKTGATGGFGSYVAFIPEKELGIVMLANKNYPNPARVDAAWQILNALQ

| SMILES | Potency | activity change, negative = inhibition |
| --- | --- | --- |
| C=CCn1c(C)cc(C(=O)Cn2c(C(C)O)nc3ccccc32)c1C (stereo unspecified) | inconclusive [inhibitor, full curve] |  |
| CCCNC(=O)C(Cc1ccccc1)NS(=O)(=O)c1ccc2c(c1)CCC(=O)N2 (stereo unspecified) | inconclusive [inhibitor, full curve, poor fit] |  |
| COc1ccccc1N(C)S(=O)(=O)c1ccc(C(=O)OCC(=O)c2c[nH]c3ccccc23)cc1 | inconclusive [inhibitor, partial curve] |  |
| COC(=O)c1cc2sccc2n1CC(=O)Nc1ccc(OC)c(OC)c1OC |  | inactive: 0.777% |
| Cc1nc(NC2=NCN(Cc3cccnc3)CN2)nc2ccccc12 | inconclusive [inhibitor, full curve, poor fit] |  |
| COC(=O)/C(C#N)=C/c1c(N2CCN(c3ccccc3)CC2)nc2ccccn2c1=O |  | inactive: -10.5% |
| COc1ccc(Cl)cc1NC(=O)c1c(NCc2ccc(C)o2)sc2c1CCCCC2 |  | inactive: 3.32% |
| CCn1c(CCNC(=O)c2ccccc2Cl)n[nH]c1=S | inconclusive [inhibitor, partial curve, poor fit] |  |
| CCOc1ccc(N2CC(NC(=O)c3cccc4ccccc34)CC2=O)cc1 (stereo unspecified) | inconclusive [inhibitor, full curve, poor fit] |  |
| COC(=O)C1CCCN1C(=O)C1CCCN1C(=O)CNC(=O)OCc1ccccc1 (stereo not drawn) (Cbz-Gly-Pro-Pro-OMe; configuration not given here) | inconclusive [inhibitor, full curve, poor fit] |  |
| COc1cc(OC)c(C(=O)NC2CCCc3ccccc32)cc1OC (stereo unspecified) | inconclusive [inhibitor, full curve, poor fit] |  |
| CC(NC(=O)Cn1cc(C(F)(F)F)ccc1=O)c1ccc(F)cc1 (stereo unspecified) | inconclusive [inhibitor, single point] |  |
| COc1ccc(C(O)P(=O)(OC2CCCCC2)c2ccc(N(C)C)cc2)cc1OC (stereo unspecified) | inconclusive [inhibitor, full curve, poor fit] |  |
| COc1cccc(C(=O)Oc2cccc(N3C(=O)C4C5CC(C(Br)C5Br)C4C3=O)c2)c1 (stereo unspecified) |  | inactive: -1.95% |
| Cc1ccc(S(=O)(=O)N2CCOCC2)cc1NC(=O)COC(=O)CCC(=O)c1ccc(F)cc1 | inconclusive [inhibitor, partial curve] |  |
| COc1ccc(NC(=O)C2CCCN(S(=O)(=O)c3ccccc3)C2)c(OC)c1 (stereo unspecified) | inconclusive [inhibitor, full curve] |  |
| COc1ccc(CCNS(=O)(=O)c2ccc3c(c2)NC(=O)C(C)S3)cc1OC (stereo unspecified) |  | inactive: -8.84% |
| Cc1ccc(S(=O)(=O)CCC(=O)OCc2nc(N)nc(Nc3ccccc3C)n2)cc1 | inconclusive [inhibitor, full curve, poor fit] |  |
| CCOC(=O)c1cnn(-c2ccc(C(=O)Nc3cc(OC)c(OC)c(OC)c3)cc2)c1N |  | inactive: 7.98% |
| CSc1ncc2c(n1)-c1ccccc1N(Cc1ccc(Cl)cc1)S2(=O)=O |  | inactive: 2.17% |
| Cn1nc(-c2ccc(Cl)cc2)cc1NC(=O)CCCC(=O)O |  | inactive: -2.65% |
| CCN(CC)c1ccc(C2C(C(=O)Nc3ccccn3)=C(C)NC3=C2C(=O)CC(C)(C)C3)cc1 (stereo unspecified) | inconclusive [inhibitor, partial curve, poor fit] |  |

| SMILES | Potency | activity change, negative = inhibition |
| --- | --- | --- |
| N#C[C@]1(S(=O)(=O)c2ccccc2)C[C@@H]2ON=C(c3cccc(Br)c3)[C@@H]2C1 | inconclusive [inhibitor, full curve, poor fit] |  |
| CCOc1ccc(N2CC(=O)N/C2=N\c2nc(C)cc(C)n2)cc1 | inconclusive [inhibitor, full curve, poor fit] |  |
| Clc1cc2cccnc2c2ccccc12 | inconclusive [inhibitor, partial curve, poor fit] |  |
| CCN(CC)CCNC(=S)N1CCn2c(nc3ccccc32)C1 | inconclusive [inhibitor, full curve, poor fit] |  |
| CN1C(c2ccccc2)CCOS1(=O)=O (stereo unspecified) | inconclusive [inhibitor, partial curve, poor fit] |  |
| COc1ccccc1C(=O)NCc1ccncc1 |  | inactive: -12.6% |
| CC1CCN(S(=O)(=O)c2cn(CC(=O)N3CC(C)CC(C)C3)c(=O)c3ccccc23)CC1 (stereo unspecified) | inconclusive [inhibitor, full curve, poor fit] |  |
| COc1ccc(Cl)cc1NC(=S)NC(=O)c1ccco1 | inconclusive [inhibitor, full curve, poor fit] |  |
| Cc1ccccc1NC(=O)c1cccc(C(=O)Nc2ccccc2C)n1 |  | inactive: 5.63% |
| COc1ccc(S(=O)(=O)n2cccc2)cc1OC | inconclusive [inhibitor, full curve, poor fit] |  |
| O=C(Nc1ccc(S(=O)(=O)N2CCOCC2)cc1)c1ccc(Cl)s1 | inconclusive [inhibitor, full curve, poor fit] |  |
| COC(=O)Cc1c(C)c2cc(Cl)c(OC(=O)c3ccco3)cc2oc1=O | inconclusive [inhibitor, full curve, poor fit] |  |
| CCOC(=O)O[C@]1(C(=O)COC(=O)CC)CC[C@H]2[C@@H]3CCC4=CC(=O)C=C[C@]4(C)[C@H]3[C@@H](O)C[C@@]21C | inconclusive [inhibitor, partial curve, poor fit] |  |
| COc1ccccc1NC(=O)C1=C(C)Nc2c(C(=O)Nc3ccc(F)cc3)cnn2C1c1cccc([N+](=O)[O-])c1 (stereo unspecified) |  | inactive: -5.99% |
| O=C(CCCn1c(SCc2ccccc2F)nc2ccccc2c1=O)NCC1CCCO1 (stereo unspecified) | inconclusive [inhibitor, single point] |  |
| Cc1cc(NC(=O)CCC(=O)N(Cc2cccs2)C(C)(C)C(=O)NC2CCCCC2)no1 | inconclusive [inhibitor, single point] |  |
| CC(=O)N1CCc2cc(Br)cc(S(=O)(=O)N3CCN(c4cccc(C(F)(F)F)c4)CC3)c21 |  | inactive: 4.73% |
| Cc1cc(C)c2sc(N(CCCN(C)C)C(=O)c3ccc(Br)s3)nc2c1 | inconclusive [inhibitor, full curve, poor fit] |  |
| CCSc1ccccc1C(=O)N1CCCC1 |  | inactive: 4.47% |
| CC(C)CN(CC(C)C)S(=O)(=O)N1CCC(C(=O)N2CCc3ccccc3C2)CC1 | inconclusive [inhibitor, partial curve] |  |
| O=C(/C=C/c1ccccc1)Nc1nnc(SCC(=O)c2ccc3ccccc3c2)s1 | inconclusive [inhibitor, partial curve] |  |
| O=C(C1CC1)N1CCc2cc(Br)cc(S(=O)(=O)N3CCN(c4cccc(C(F)(F)F)c4)CC3)c21 | inconclusive [inhibitor, full curve, poor fit] |  |

| SMILES | Potency | activity change, negative = inhibition |
| --- | --- | --- |
| COc1ccc(CNC(=O)CN2C(=O)NC(Cc3ccccc3)(c3ccccc3)C2=O)cc1OC (stereo unspecified) | inconclusive [inhibitor, partial curve, poor fit] |  |
| CCCCOc1ccc(-c2nn(-c3ccccc3)cc2C2NC(=O)NC(C)=C2C(=O)OC)cc1 (stereo unspecified) |  | inactive: 3.98% |
| O=C(Nc1nccs1)c1ccc2ccccc2n1 |  | inactive: -11.9% |
| Cc1ccccc1CCN1CCCC(CN(C)C(=O)C(=O)c2ccco2)C1 (stereo unspecified) |  | inactive: 1.78% |
| CCn1c(C)c2c(C)nnc(C)c2c1C |  | inactive: -4.57% |
| COc1ccc(C(=O)NCCc2nnc(SCC(=O)Nc3ccccc3C(C)C)n2C)cc1 | inconclusive [inhibitor, single point] |  |
| Cc1ccc(SCc2nc3ccccc3[nH]2)cc1 |  | inactive: 0.0552% |
| CCOC(=O)N1CCN(C(=O)Cn2ncn3nc(-c4cccs4)cc3c2=O)CC1 | inconclusive [inhibitor, full curve] |  |
| COC(=O)c1[nH]nc(C(=O)OC(C)(C)C)c1-c1ccccc1 |  | inactive: -8.42% |
| Cc1nc(-c2ccccc2)cc(N2CCCC2)n1 |  | inactive: -5.64% |
| Cc1ccc(C)n1-c1sc2c(c1C#N)CCC(C)C2 (stereo unspecified) | inconclusive [inhibitor, full curve, poor fit] |  |
| CCOC(=O)c1sc(=S)n(-c2ccc(C)cc2)c1SC |  | inactive: -12.6% |
| COc1cc2c(cc1OC)CN(C(=O)Cn1ccccc1=O)CC2 | inconclusive [inhibitor, full curve, poor fit] |  |
| CC(=O)c1ccc(N2CCN(CCC#N)CC2)c(F)c1 | inconclusive [inhibitor, partial curve] |  |
| COc1ccccc1Nc1ncnc2ccccc12 | inconclusive [inhibitor, full curve, poor fit] |  |
| CCn1ncc(C2=NOC(C(=O)Nc3c(C)nn(Cc4ccc(F)cc4)c3C)C2)c1C (stereo unspecified) | inconclusive [inhibitor, full curve, poor fit] |  |
| COc1ccc(-c2nn3c(=O)cc(CN4CCN(C(=O)c5ccc(C(C)(C)C)cc5)CC4)nc3s2)cc1 |  | inactive: 0.273% |
| CCOc1ccccc1NC(=O)CSc1nc2c(oc3ccccc32)c(=O)n1-c1ccc(C)c(C)c1 |  | inactive: -1.19% |
| O=C1CCCC(=O)N1c1ccc(N2CCN(c3ccc([N+](=O)[O-])cc3)CC2)c([N+](=O)[O-])c1 | inconclusive [inhibitor, full curve] |  |
| COc1cc(N2CCOCC2)ccc1C=C1C(=O)NC(=O)NC1=O | inconclusive [inhibitor, partial curve] |  |
| CCS(=O)(=O)N1CCC(C(=O)NC2CCCCC2)CC1 | inconclusive [inhibitor, full curve, poor fit] |  |
| S=C(NCCc1ccc(Cl)cc1)Nc1ccc(Cl)cc1Cl |  | inactive: 4.24% |
